Among all 360,000 compounds or so, about 6,000 (1.7%) were called active. This list was built around the results that the source calls inconclusive (neither active nor inactive); the mix of calls is not that of the screen. Calls follow the shape of the dose curve; as a rule, active = well fitted cell-killing curve with a large enough effect; inconclusive = small, poorly fitted or top-dose-only effect, or effect the other way; inactive = flat fitted curve, though single readings scatter. Potencies of inconclusive entries are left out as doubtful fits.
Assay: qHTS for induction of synthetic lethality in tumor cells producing 2HG: qHTS for the HT-1080-NT fibrosarcoma cell line;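 also: NT is the 2HG producing partner of a matched IDH1 knockdown line; nearly all actives have a fitted effect of over 55% in size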;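 as to activity, negative = less viability: 0% = DMSO-treated cells and -100% = media-only wells without cells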
Conditions: HT-1080-NT fibrosarcoma viability, CellTiter-Glo ATP luminescence, 48 h; activity, negative = less viability: at 46.1 µM (top of the series) unless noted
Method in brief: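 HT-1080-NT; 750 cells/well; 5% FBS RPMI; 48 h compound, 37 degrees C; CellTiter-Glo luminescence; curve fitting and curve-class assignment.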
Potency is read from the fitted curve at half-maximal effect; tags tell the direction and shape of the fitted curve.

| Compound | Potency | activity, negative = less viability |
| --- | --- | --- |
| CCOC(=O)/C(=C/c1c(C)n(C)c2ccc([N+](=O)[O-])cc12)C(C)=O | active: 16.4 µM | – |
| CC(C)c1ccc(NC(=S)NN2C(C)CCCC2C)cc1 (centres undefined) | inactive | – |
| Cc1cc(Br)c(NC(=O)COC(=O)C2CCCCC2)c(Br)c1 | inactive | – |
| CCCCn1c(CCCNC(=O)c2ccco2)nc2ccccc21 | inactive | – |
| COc1cc(C(=O)NC2CCN(C)CC2)ccc1Nc1ncc2c(n1)N(C1CCC(O)CC1)CCC(=O)N2C (centres undefined) | inconclusive [cytotoxic, partial curve, poor fit] | – |
| Cc1cccc(C)c1NC(=O)C[N+](C)(C)CC(O)COc1cccc2ccccc12 (centres undefined) | inconclusive [cytotoxic, partial curve] | – |
| Cc1ccc(NS(=O)(=O)c2ccc(OCC(=O)NCc3cccnc3)cc2)cc1 | inactive | – |
| c1ccc(OCc2cc(-c3ccccc3)no2)cc1 | inconclusive [rising, partial curve] | – |
| CN(C)c1ccc(C=c2c3ccccc3n3c2c2c([n+]3C)CCCC2)cc1 | inconclusive [cytotoxic, partial curve] | – |
| COc1ccc(NC(=O)C(=O)NNC(=O)c2ccc(Cl)cc2Cl)cc1 | inconclusive [cytotoxic, single point] | – |
| O=C(N/N=C/c1ccc(-c2cccc(C(F)(F)F)c2)o1)c1cccc(F)c1 | inconclusive [cytotoxic, single point] | – |
| COc1ccc(CC(=O)NCCCc2ccccc2)cc1OC | – | inconclusive: -15.1% [cytotoxic] |
| Cc1cc(C)cc(OCCCCCNCCO)c1 | inconclusive [cytotoxic, single point] | – |
| CCn1c(=O)c2cc(C(=O)NCCN(C)C)sc2c2ccccc21 | inconclusive [cytotoxic, single point] | – |
| NC(Cc1ccc(C(F)(F)F)cc1)c1csc(Nc2ccc(C(=O)NCc3ccco3)cn2)n1 (centres undefined) | active: 11.6 µM | – |
| CCCCNC(=O)c1cc(-c2ccc3c(c2)OCO3)on1 | inconclusive [cytotoxic, full curve] | – |
| CCc1cc(SC#N)cc(C)c1NC(=O)CCl | inconclusive [cytotoxic, single point] | – |
| Cc1cc2nccc(-c3ccc(Cl)c([N+](=O)[O-])c3)n2n1 | inactive | – |
| Cc1cc(S(=O)(=O)Nc2cc(C)c(O)c(C)c2)c(C)s1 | inconclusive [cytotoxic, partial curve, poor fit] | – |
| CCc1c(C)nc2c(-c3ccccc3)c(C)nn2c1Nc1ccc(NC(C)=O)cc1 | inconclusive [cytotoxic, single point] | – |
| COc1ccc(-c2csc(NC(=S)NC(=O)/C=C/c3ccco3)n2)cc1Br | active: 3.66 µM | – |
| O=C(O)c1cccc(NC(=S)N/N=C/c2ccccc2OCc2ccc(Br)cc2)c1 | inconclusive [cytotoxic, single point] | – |
| COc1ccc(/C=C/c2onc(C)c2S(=O)(=O)N2CCC(C(=O)N3CCCCCC3)CC2)cc1 | inactive | – |
| O=C(Nc1ccc(C(=O)N2CCCC2)cc1)c1ccccc1F | inconclusive [cytotoxic, partial curve] | – |
| Cc1nc(NC(=O)CSc2cc(C)c3ccccc3n2)c(Cl)cc1Cl | inconclusive [cytotoxic, single point] | – |

| Compound | Potency | activity, negative = less viability |
| --- | --- | --- |
| Oc1c(N=Nc2ccccc2)sc2ccccc12 | inactive | – |
| COc1ccc(NC(C)C(=O)N/N=C/c2cc(Br)ccc2OC)cc1 (centres undefined) | inactive | – |
| COc1ccccc1CC1CC(=O)N(c2cccc(Cl)c2C)C1=O (centres undefined) | inactive | – |
| O=C(Cc1ccccc1)N/N=C/c1cc(Br)cc(Cl)c1O | inconclusive [cytotoxic, partial curve] | – |
| COc1ccc(-n2cc(-c3ccccc3)c3c(N4CC(C)OC(C)C4)ncnc32)cc1 (centres undefined) | inconclusive [cytotoxic, partial curve] | – |
| NC(CCc1ccccc1)c1csc(Nc2ccc(C(=O)NCCCO)cn2)n1 (centres undefined) | inconclusive [cytotoxic, partial curve] | – |
| CC(C)c1ccc(N2C=Nc3ccc(C(C)C)cc3C2)cc1 | inconclusive [cytotoxic, single point] | – |
| CCCC(C)(C)C(=O)N1CCC1(C)C(=O)Nc1ccc2c(c1)OCCO2 (centres undefined) | – | inconclusive: 30.8% |
| S=C(Nc1ccc(-c2nc3ccccc3[nH]2)cc1)Nc1cccnc1 | inconclusive [cytotoxic, single point] | – |
| Nc1nc(N)c2cc(Sc3cccc(C(F)(F)F)c3)ccc2n1 | active: 5.8 µM | – |
| COc1cc(C(=O)COC(=O)c2cc([N+](=O)[O-])ccc2N2CCOCC2)ccc1OC(F)F | inactive | – |
| Cn1c2ccccc2c(=O)c2cc(C#CC3(O)CCCCC3)ccc21 | inactive | – |
| Cc1c(CCCN)c2ccccc2n1Cc1ccccc1 | inconclusive [cytotoxic, single point] | – |
| O=C(NCc1ccco1)c1cnn2c1NC(c1ccc(Br)cc1)CC2C(F)(F)F (centres undefined) | inconclusive [cytotoxic, single point] | – |
| Cc1ccc(C(=O)N(CCN2CCCCC2)CC2CCCN(C3CCCC3)C2)s1 (centres undefined) | inconclusive [cytotoxic, partial curve] | – |
| O=C(CC(NC(=O)OCc1ccccc1)c1nn[nH]n1)OCc1ccccc1 (centres undefined) | inactive | – |
| Cc1nnc(SC(C)C(=O)Nc2ccc(Cl)cn2)n1Cc1ccccc1 (centres undefined) | inconclusive [cytotoxic, single point] | – |
| CC(=O)Nc1ccc(S(=O)(=O)N2CCN(c3cnn(C)c(=O)c3Cl)CC2)cc1 | inactive | – |
| CCOC(=O)c1ccc(NC(=O)c2ccc(NS(C)(=O)=O)cc2)cc1 | inconclusive [cytotoxic, single point] | – |
| O=C(CCC(=O)Nc1ccc(Br)cc1)N/N=C/c1cc([N+](=O)[O-])ccc1O | inactive | – |
| FC(F)(F)c1cc(-c2ccco2)nc(-n2cnc3ccccc32)n1 | inactive | – |
| Cn1c(C(=O)NCc2ccccc2)cc2oc3ccccc3c21 | inconclusive [cytotoxic, full curve, poor fit] | – |
| Cc1cc(SCC(=O)Nc2ccc(O)cc2)n2nc(C)c(-c3ccccc3)c2n1 | inconclusive [cytotoxic, single point] | – |
| O=Cc1ccc(-c2ccccc2C(=O)O)o1 | inactive | – |
| COC(=O)CCc1c(C)c(C(=O)c2cc(OC)c(OC)c(OC)c2)c2ccccn12 | inconclusive [cytotoxic, single point] | – |

| Compound | Potency | activity, negative = less viability |
| --- | --- | --- |
| OCCN1CCN(c2ncnc3c2sc2nc(N4CCOCC4)c4c(c23)CCC4)CC1 | inconclusive [cytotoxic, single point] | – |
| CC(=O)c1ccc(NC(=O)C(C)OC(=O)C2CCN(c3ccc(C(F)(F)F)cn3)CC2)cc1 (centres undefined) | inactive | – |
| COc1ccccc1-c1nnc(SCC(=O)c2ccc(C3CCCCC3)cc2)n1Cc1ccco1 | inconclusive [cytotoxic, single point] | – |
| O=S(=O)(Nc1nc2ccccc2nc1NCC1CCCO1)c1cc(Cl)ccc1Cl (centres undefined) | inactive | – |
| CCC1CCc2sc(C(=O)O)cc2C1 (centres undefined) | inactive | – |
| Cc1onc(-c2ccccc2)c1C(=O)Nc1sc2c(c1C#N)CCC2 | active: 12.6 µM | – |
| Cn1c(SCC(=O)N2CCN(S(=O)(=O)c3ccccc3)CC2)nc2ccccc21 | inactive | – |
| O=S(=O)(CCNCCc1ccccc1)NCc1ccccc1 | inactive | – |
| CCN(CC)CCNC1=NCCn2c1cc1cc(OC)ccc12 | inconclusive [cytotoxic, single point] | – |
| N/C(=N\OC(=O)c1ccccc1)c1ccccn1 | inconclusive [cytotoxic, single point] | – |
| Nc1ccc2c(c1)C(=O)C(=O)c1ccccc1-2 | active: 4.61 µM | – |
| O=C(N/N=C/c1ccc(Br)s1)c1ccc([N+](=O)[O-])cc1 | – | inconclusive: -6.48% [cytotoxic] |
| Cc1ccc2[nH]c(=O)c(CN(CCc3ccccc3)C(c3nnnn3Cc3ccco3)C(C)C)cc2c1 (centres undefined) | inconclusive [cytotoxic, single point] | – |
| Cc1ccccc1Cn1c2ccccc2c2cnn(CC(=O)NCCCN3CCN(C)CC3)c(=O)c21 | inconclusive [cytotoxic, single point] | – |
| Cc1cnc2ccc(F)cc2c1 | inactive | – |
| CC(C)c1ccc(S(=O)(=O)N2CCN(C(=O)CCc3nc4ccccc4c(=O)[nH]3)CC2)cc1 | inconclusive [cytotoxic, partial curve] | – |
| O=C(Cn1c(COc2ccccc2)nc2ccccc21)Nc1cc(Cl)cc(Cl)c1 | inconclusive [cytotoxic, single point] | – |
| CCCOc1cccc(C(=O)NC(=S)Nc2cccc(C(F)(F)F)c2)c1 | inconclusive [cytotoxic, single point] | – |
| COc1cccc(NC(=O)c2ccc(-n3cnnn3)cc2)c1 | inconclusive [cytotoxic, single point] | – |
| CC(=O)Nc1cc(-c2ccc(N3CCN(C)CC3)cc2)cn2c(-c3ccc(F)c(Cl)c3)cnc12 | active: 20.6 µM | – |
| COc1ccccc1-c1nnc(SC(C(=O)c2c[nH]c3ccccc23)c2ccccc2)n1C (centres undefined) | inconclusive [cytotoxic, partial curve] | – |
| O=S(=O)(Nc1ccc(C(O)(C(F)(F)F)C(F)(F)F)cc1)c1ccc(Cl)c2nonc12 | active: 20.6 µM | – |
| CCOC(=O)N/N=C/c1cc(C)n(-c2cccc3ccccc23)c1C | inactive | – |
| CCOC(=O)C1=C(COC(=O)COc2ccc(OCC)cc2)NC(=O)NC1C (centres undefined) | inactive | – |

— PubChem BioAssay AID686970 (National Center for Advancing Translational Sciences (NCATS), 2013)
